Holding throughout (assay): Primary Screen for Target Class Profiling of Small Molecule Inhibitors of Methyltransferases
Assay [1] concerns the target Glycine N-methyltransferase (Homo sapiens) (UniProt Q14749). The settings on record: purified enzyme, MTase-Glo SAH luminescence; measured here: GNMT inhibition; at 40 µM; stronger effect = lower value. In short, it runs like this: (§1)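 Each enzyme was reacted with SAM and its substrate, with compounds tested once at 40 uM; SAH formed was read by MTase-Glo luminescence.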
In assay [2] the target is Guanidinoacetate N-methyltransferase (Homo sapiens) (UniProt Q14353). Conditions: purified enzyme, MTase-Glo SAH luminescence; measured here: GAMT inhibition; at 40 µM; stronger effect = lower value. A digest of the protocol: as §1
Assay [3] deals with Histamine N-methyltransferase (Homo sapiens) (UniProt P50135). The settings on record: purified enzyme, MTase-Glo SAH luminescence; measured here: HNMT inhibition; at 40 µM; stronger effect = lower value. A digest of the protocol:
as §1

Assay [4] deals with Nicotinamide N-methyltransferase (Homo sapiens) (UniProt P40261). The settings on record: purified enzyme, MTase-Glo SAH luminescence; measured here: NNMT inhibition; at 40 µM; stronger effect = lower value. In short, it runs like this:
as §1

Assay [5] has as its target Phenylethanolamine N-methyltransferase (Homo sapiens) (UniProt P11086). The settings on record: purified enzyme, MTase-Glo SAH luminescence; measured here: PNMT inhibition; at 40 µM; stronger effect = lower value. A digest of the protocol: as §1

For 17 compounds, activity change, negative = inhibition results are on record in PubChem BioAssay AID1745853 (National Center for Advancing Translational Sciences (NCATS), 2022).

SMILES strings stand for the structures. The list shows a part of the results. The main result of the screen is listed elsewhere. These columns were measured beside it and carry no call.
On the % scale 0 is the no-effect control and ±100 the full control effect.

On to `CCOC(=O)c1cc2n(n1)CC(C)(C(=O)NC1CCCC1)N(c1cccc(SC)c1)C2=O` (stereo not drawn), for which the activity change, negative = inhibition in assay [1] was 0.303%; in assay [2], 5.12%; in assay [3] it was -3.09%; in assay [4], 2.87%; in assay [5], 2.8%.
Regarding `CC(C)c1ccc(N2C(=O)N[C@@H]3CCN(C(=O)C4CCCC4)[C@@H]3C2=O)cc1`, the activity change, negative = inhibition in assay [1] was -5.78%; in assay [2], -12.2%; in assay [3], -2.63%; in assay [4] it was -6.64%; in assay [5], -0.799%.
`COCCC1(NC(=O)C2CC2)CCN(C(=O)c2ccccn2)CC1`: the activity change, negative = inhibition in assay [1] was -0.819%; in assay [2] it was -1.8%; in assay [3], 1.56%; in assay [4], 0.08%; in assay [5], -4.6%.
Taken in the same sequence, the figures for `CCCNC(=O)c1c(-c2ccccc2)cc(=O)n2c1CCC2` were -4.21%, -9.52%, -3.24%, -9.95% and -6.46%.
With `CCCC1c2cccn2CCN1C(=O)Nc1ccccc1OC` (stereo not drawn), the activity change, negative = inhibition is 3.96% in assay [1]; 0.658% in assay [2]; -20.7% in assay [3]; 6.62% in assay [4]; 10.7% in assay [5].
In the case of `Cc1c(CN2CCN(C(=O)[C@H](C)O)CC2)sc2c(N3CCOCC3)nc(-c3cnc(N)nc3)nc12`, the activity change, negative = inhibition in assay [2] is 6.83%; in assay [4], -27.4%; in assay [5], -14.2%.
Consider `O=C(c1c[nH]c2ncccc12)N1CCC(Cc2ccccc2)CC1`, for which the activity change, negative = inhibition in assay [1] was -15%; in assay [2], -8.83%; in assay [3], -16.1%; in assay [4] it was -26.2%; in assay [5], -3.45%.
Taken in the same sequence, the figures for `CC(C)Cn1c(=O)c2ccc(C(=O)NC(C)C)cc2n2c(=O)n(Cc3ccc(F)cc3Cl)nc12` were 3.42%, 4.72%, 4.27%, -1.34% and 2.59%.
In the same order, the values of `CN1CCC(OC2CCN(C(=O)c3cccc(F)c3)CC2)CC1` are -2.77%, 1.84%, -10.8%, -2.83% and -3.61%.
`CCCn1c(=O)c2ccccc2n2c(SCc3cc(C)ccc3C)nnc12`: the activity change, negative = inhibition was -4.27% in assay [1]; 0% in assay [2]; 5.62% in assay [3]; -10.6% in assay [4]; 3.68% in assay [5].
In the same order, the values of `CC1(C)C=Cc2c(ccc3c2[N+]([O-])=C2C3(O)CC34NC(=O)C5(CCCN5C3=O)CC4C2(C)C)O1` (stereo not drawn) are -5.37%, -7.34%, 2.37%, -18.2% and -0.806%.
In the same order, the values of `Cc1cnc(-c2cc(N3CCN(C(=O)CCS(C)(=O)=O)CC3)ncc2Cl)c(C)c1` are 4.88%, 3.44%, 10.7%, -20.6% and 0.441%.
In the same order, the values of `CCCn1c(=O)c2ccc(C(=O)NCC(C)C)cc2n2c(SCC(=O)c3ccccc3)nnc12` are 6.36%, 0.455%, 6.9%, 8.33% and 5.24%.
In the case of `CNC(=O)c1cc[nH]c1C1CCCN(C(=O)c2ccc(Cn3cncn3)o2)C1` (stereo not drawn), the activity change, negative = inhibition in assay [1] was -5.27%; in assay [2] it was -8.61%; in assay [3], -3.26%; in assay [4] it was -12.4%; in assay [5], -10.1%.
`CC(C)CCN1CCC2(C1)C(=O)N(c1ccccc1)c1ccccc12` (stereo not drawn): the activity change, negative = inhibition in assay [1] is -4.6%; in assay [2], -2.52%; in assay [3] it was -4.35%; in assay [4], -17%; in assay [5], -5.95%.
`C=C1C(OC(C)=O)CCC2(C)CCC(C(C)(C)O)CC12` (stereo not drawn): the activity change, negative = inhibition in assay [1] is 2.35%; in assay [2] it was 10.5%; in assay [3] it was 5.92%; in assay [4], -4.63%; in assay [5], 3.02%.
Taken in the same sequence, the figures for `COc1cccc(Cn2nc3n(CCC(C)C)c(=O)c4ccc(C(=O)NC5CCCC5)cc4n3c2=O)c1` were 4.67%, 1.84%, 11.4%, 0.538% and 5.69%.
